Data taken from PubChem BioAssay AID624296 (National Center for Advancing Translational Sciences (NCATS), 2012).
Values joined by “and” are separate entries in the source; they are usually repeats but may differ in a detail not shown here. Identical values can stand only once. About 9,900 (2.8%) of roughly 350,000 compounds were called active. Inconclusive means that the source gave no clear call. Such entries were picked first, then a sample of the others. Calls come from the whole dose curve; as a rule, active = well fitted activation curve with a large enough effect; inconclusive = small, poorly fitted or top-dose-only effect; inactive = no such curve, though single readings can be large or run the other way. A potency beside an inconclusive call is a rough fit, not a confirmed value.

Experiment: A quantitative high throughput screen for small molecules that induce DNA re-replication in MCF 10a normal breast cells. For activity, positive = re-replication: % of control where 0% means no effect. Note: nearly all actives have a fitted effect of over 50% in size.
Settings: MCF 10A DNA re-replication, Hoechst nuclear intensity, 48 h; activity, positive = re-replication: at 46.1 µM (top of the series)
Potency is the fitted concentration of half-maximal effect; tags give direction and shape of the fitted curve.

| SMILES | Potency | activity, positive = re-replication |
| --- | --- | --- |
| COc1ccccc1CNC(=O)/C(C#N)=C/c1ccc(OC)c(OC)c1OC | active: 18.4 µM |  |
| C=C1C(=O)OC2CC1C(O)CC(C)=CCCC(C)=CC(O)CC2C (stereo unspecified) | active: 1.3 µM |  |
| Cc1cc(C)nc(NS(=O)(=O)c2ccc(NC(=O)CN3C(=O)S/C(=C\c4ccccc4)C3=O)cc2)n1 | inconclusive: 23.1 µM [activator, single point] |  |
| C/C(=N\NC(=O)CCC(=O)Nc1ccc(C)c(C)c1)C1CC1 |  | inactive: -0.321% |
| CCc1ccc(CN(C)C(=O)CCc2nnc(-c3ccc(-c4ccccc4)cc3)o2)nc1 | inconclusive: 29.1 µM [activator, single point] |  |
| Cc1ccn2c(NCc3ccccc3)c(-c3cccs3)nc2c1 | inconclusive: 20.6 µM [activator, single point] |  |
| COc1cccc(COC(=O)c2ccc3c(=O)n4c(nc3c2)CCC4)c1OC | inconclusive: 29.1 µM [activator, single point] |  |
| O=C1c2ccccc2NC(c2ccc(-c3ccc(C(F)(F)F)cc3)o2)N1O (stereo unspecified) | inconclusive: 29.1 µM [activator, single point] |  |
| COc1ccc2nc(Nc3nc4ccc(NC(C)=O)cc4s3)sc2c1 | inconclusive: 18.4 µM [activator, single point] |  |
| CCC(C(=O)N1CCN(S(=O)(=O)c2ccc(F)cc2)CC1)c1ccccc1 (stereo unspecified) |  | inactive: 4.13% |
| CC(C)N1CCc2c(sc(NC(=O)c3cc4cc([N+](=O)[O-])ccc4s3)c2C(N)=O)C1 | inconclusive: 23.1 µM [activator, single point] |  |
| Cc1cccc2sc(NNC(=O)c3ccc(S(=O)(=O)N4CCc5ccccc5C4)cc3)nc12 | inconclusive: 29.1 µM [activator, single point] |  |
| O=C(CN1C(=O)NC2(CCc3ccccc32)C1=O)c1ccc(Br)cc1 (stereo unspecified) |  | inactive: 26% |
| COc1ccc(-c2cc(C(=O)c3c(N)n(C)c(=O)n(C)c3=O)c3ccccc3n2)cc1 |  | inactive: 2.93% |
| CCSc1cc(N2CC(C)OC(C)C2)nc(-c2ccccc2Cl)n1 (stereo unspecified) | inconclusive: 18.4 µM [activator, partial curve, poor fit] |  |
| Cc1ccc(C(=O)Nc2nnc(S(=O)(=O)N3CCC(C)CC3)s2)cc1 |  | inactive: -3.73% |
| CC(NC(N)=O)C(=O)Nc1ccc(Cl)c(S(=O)(=O)Nc2ccc(Br)cc2)c1 (stereo unspecified) | inconclusive: 25.9 µM [activator, partial curve, poor fit] |  |
| CCOC(=O)Cc1csc(NC(=O)c2ccc(Cl)nc2)n1 | inconclusive: 14.6 µM [activator, partial curve] |  |
| CC(/C=N/NC(=O)CSc1nnc(SCc2ccccc2)s1)=C\c1ccco1 | inconclusive: 23.1 µM [activator, single point] |  |
| COc1cccc(C2CC(=O)Nc3n[nH]c(-c4ccccc4)c32)c1OC (stereo unspecified) |  | inactive: 10.6% |
| CC(=O)c1cccc(Nc2ncnc3ccc(Br)cc23)c1 | inconclusive: 1.46 µM [activator, partial curve, poor fit] |  |
| Cc1ccn2cc(C(=O)Nc3ccccc3N3CCOCC3)nc2c1 |  | inactive: -2.72% |

| SMILES | Potency | activity, positive = re-replication |
| --- | --- | --- |
| O=C(NCCNC(=O)c1ccc(Cl)cc1Cl)c1cnccn1 |  | inactive: 0.457% |
| COc1ccccc1NC(=O)CN1CCN(CC(=O)Nc2ccc3c(c2)OCO3)CC1 |  | inactive: -0.915% |
| CC1=CC(=NOC(=O)c2cccc([N+](=O)[O-])c2)C=C(C)C1=O | inconclusive: 16.4 µM [activator, single point] |  |
| COc1ccc(OC)c(Nc2nc(N)c([N+](=O)[O-])c(NC3CCCCC3)n2)c1 | inconclusive: 2.31 µM [activator, partial curve] |  |
| Nc1c(C(=O)Nc2ccccc2)c2nc3ccccc3nc2n1-c1ccc(O)cc1 | active: 14.6 µM |  |
| COc1cc(C(CC(=O)Nc2cc(C)ccn2)N2Cc3ccccc3C2=O)cc(OC)c1OC (stereo unspecified) |  | inactive: -0.687% |
| Cc1ccc(S(=O)(=O)N2CCN(C(=O)COC(=O)CNC(=O)c3ccc(C(C)(C)C)cc3)CC2)c(C)c1 |  | inactive: -2.41% |
| CS(=O)(=O)N(CCc1ccccc1)CC(=O)N1CCN(Cc2ccc3c(c2)OCO3)CC1 | inconclusive: 18.4 µM [activator, partial curve, poor fit] |  |
| Cn1c(SCC(N)=O)nnc1C1CCN(S(=O)(=O)c2ccccc2C(F)(F)F)CC1 | inconclusive: 18.4 µM [activator, single point] |  |
| CC(C)n1c2ccccc2c2nc3ccccc3nc21 | active: 23.1 µM |  |
| CC(=O)OC1CCC2C3CCc4cc(O)ccc4C3CCC12C (stereo unspecified) | inactive and inconclusive: 26.6 µM [activator, partial curve] |  |
| O=C(Nc1nc2ccccc2[nH]1)c1ccc(S(=O)(=O)N2CCOCC2)cc1 | inconclusive: 18.4 µM [activator, single point] |  |
| O=C1c2ccccc2NC(c2ccc(-c3ccccc3F)o2)N1O (stereo unspecified) |  | inactive: -4.67% |
| CCOC(=O)C1(CCCc2ccccc2)CCN(C(=O)CCn2cncn2)CC1 | inconclusive: 29.1 µM [activator, single point] |  |
| CCc1ccc(NC(=O)Cn2nnc(-c3ccc(C)cc3-n3cnnn3)n2)cc1 | inconclusive: 11.6 µM [activator, partial curve, poor fit] |  |
| CC1=C(CC(=O)c2ccccc2)C(=O)c2ccccc2C1=O | inconclusive: 16.4 µM [activator, partial curve, poor fit] |  |
| CN(CCCC1CCCC1)C(=O)c1cc(COc2ccc(F)cc2F)on1 | inconclusive: 9.2 µM [activator, partial curve] |  |
| Cc1ccc(OCCNC(=O)C2CCCCC2)cc1 | inconclusive: 4.11 µM [activator, single point] |  |
| CN1/C(=C\C(=O)c2cccnc2Cl)C(C)(C)c2ccccc21 | inconclusive: 11.6 µM [activator, partial curve, poor fit] |  |
| Cc1ccc(C(=S)N2CCN(Cc3ccccc3)CC2)cc1 | inconclusive: 6.51 µM [activator, single point] |  |
| COc1ccc2[nH]c(CN3CCC(n4nccc4NC(=O)C4CC4)CC3)c(C)c2c1 | inconclusive: 8.2 µM [activator, partial curve, poor fit] |  |
| O=C(c1ccccc1NS(=O)(=O)c1ccc(Cl)cc1)N1CCc2ccccc21 | inconclusive: 18.4 µM [activator, single point] |  |

| SMILES | Potency | activity, positive = re-replication |
| --- | --- | --- |
| CCOC(=O)c1c(NC(NC(C)=O)C(Cl)(Cl)Cl)sc2c1CCCC2 (stereo unspecified) | active: 20.6 µM |  |
| CCOC(=O)NC(=O)CSc1nnnn1-c1ccc(Cl)cc1 | active: 1.84 µM |  |
| Cc1ccc(CN2CCNC(=O)C2CC(=O)NCc2cc(C)n(C)n2)cc1 (stereo unspecified) | inconclusive: 20.6 µM [activator, single point] |  |
| Cc1cccc(C(=O)NC(=S)Nc2ccc(S(=O)(=O)N3CCN(C)CC3)cc2)c1 | inconclusive: 14.6 µM [activator, partial curve] |  |
| Cc1ccc(-c2noc(CCCC(=O)NC3CCCC3)n2)cc1 | inconclusive: 7.31 µM [activator, partial curve, poor fit] |  |
| CC(C)CCNC(=O)CN(Cc1ccccc1)C(=O)CCC(=O)Nc1ccccn1 | inconclusive: 23.1 µM [activator, partial curve, poor fit] |  |
| Cc1cccc(NS(=O)(=O)c2ccc(C)c(C(=O)NCCCN3CCOCC3)c2)c1 | inconclusive: 13 µM [activator, partial curve, poor fit] |  |
| CCOc1ccc(N(CC(=O)N/N=C/c2cc([N+](=O)[O-])ccc2Cl)S(C)(=O)=O)cc1 | inconclusive: 23.1 µM [activator, partial curve, poor fit] |  |
| COc1cccc(C(=O)NC2CC3CCCC(C2)N3CC(=O)Nc2ccccc2C(F)(F)F)c1 (stereo unspecified) | inconclusive: 29.1 µM [activator, single point] |  |
| Cc1ccc(CC2CC(=O)N(C(Cc3ccccc3)C(=O)O)C2=O)cc1 (stereo unspecified) | inconclusive: 23.1 µM [activator, partial curve, poor fit] |  |
| Cc1ccccc1CN(C)Cc1cc(=O)oc2c(C)c(C)ccc12 | inconclusive: 5.8 µM [activator, full curve, poor fit] |  |
| Cc1ccc(NC(=O)NNC(=O)c2snnc2C)cc1 |  | inactive: -2.82% |
| CCCOc1ccc(C(=O)CCN2CCCCC2)cc1 | inconclusive: 29.1 µM [activator, single point] |  |
| CCCC(=O)N/C(N)=N/c1nc(C)c2ccccc2n1 | inconclusive: 23.1 µM [activator, single point] |  |
| NC(=O)c1cccc(-c2cnc(N)c(C(=O)c3cccnc3)n2)c1 | inconclusive: 5.17 µM [activator, full curve] |  |
| COC(=O)c1cc(N2CCNCC2)nc2ccccc12 | inconclusive: 18.4 µM [activator, single point] |  |
| O=CN1CCN(c2ncnc3c2nnn3Cc2c(F)cccc2Cl)CC1 | inconclusive: 29.1 µM [activator, single point] |  |
| CC(=C/c1ccc(C(C)C)cc1)/C=N/NC(=O)Cn1nc(C)cc1C | inconclusive: 29.1 µM [activator, single point] |  |
| Cc1nnc(N/N=C/c2ccc(Br)cc2)n1N | inconclusive: 29.1 µM [activator, single point] |  |
| COc1ccccc1Nc1nc(N)nc(CN2CCN(Cc3ccccc3)CC2)n1 |  | inactive: 7.7% |
| O=C(Cc1ccc(NC(=O)C2CCCN(C(=O)CCc3ccccc3)C2)cc1)Nc1cccc(C(=O)N2CCCC2)c1 (stereo unspecified) | inconclusive: 10.3 µM [activator, partial curve, poor fit] |  |
| C#CCOCCOCCOCCNc1nc(N2CCN(C(=O)Cn3cc(CC(C)O)nn3)CC2)nc(N2CCN(C(=O)[C@H](CCCCN)n3cc(CCC(=O)O)nn3)CC2)n1 (stereo partly specified) | inconclusive: 4.61 µM [activator, partial curve, poor fit] |  |
